Measured values published in PubChem BioAssay AID1645882 (National Center for Advancing Translational Sciences (NCATS), 2021).
Screen size: about 16,000 compounds; about 120 (0.75%) were called active. Inconclusive results (about 4%) are left out. The call rests on the fitted dose curve; in most records, active means well fitted inhibition curve with a large enough effect; inconclusive means small, poorly fitted or top-dose-only effect; inactive means no such curve, though single readings can be large or run the other way. The list shows a part of the results.

Each molecule was assayed against Rap guanine nucleotide exchange factor 3 (Homo sapiens) (UniProt O95398) (assay: Validation qHTS for antagonist of cAMP-regulated guanine nucleotide exchange factor 3 (EPAC1)). Conditions: EPAC1 Rap1B-BODIPY-GDP exchange, fluorescence; series mostly up to 150 µM; activity change, negative = inhibition: at the top concentration.
UniProt O95398, sequence (O95398 whole entry, looked up): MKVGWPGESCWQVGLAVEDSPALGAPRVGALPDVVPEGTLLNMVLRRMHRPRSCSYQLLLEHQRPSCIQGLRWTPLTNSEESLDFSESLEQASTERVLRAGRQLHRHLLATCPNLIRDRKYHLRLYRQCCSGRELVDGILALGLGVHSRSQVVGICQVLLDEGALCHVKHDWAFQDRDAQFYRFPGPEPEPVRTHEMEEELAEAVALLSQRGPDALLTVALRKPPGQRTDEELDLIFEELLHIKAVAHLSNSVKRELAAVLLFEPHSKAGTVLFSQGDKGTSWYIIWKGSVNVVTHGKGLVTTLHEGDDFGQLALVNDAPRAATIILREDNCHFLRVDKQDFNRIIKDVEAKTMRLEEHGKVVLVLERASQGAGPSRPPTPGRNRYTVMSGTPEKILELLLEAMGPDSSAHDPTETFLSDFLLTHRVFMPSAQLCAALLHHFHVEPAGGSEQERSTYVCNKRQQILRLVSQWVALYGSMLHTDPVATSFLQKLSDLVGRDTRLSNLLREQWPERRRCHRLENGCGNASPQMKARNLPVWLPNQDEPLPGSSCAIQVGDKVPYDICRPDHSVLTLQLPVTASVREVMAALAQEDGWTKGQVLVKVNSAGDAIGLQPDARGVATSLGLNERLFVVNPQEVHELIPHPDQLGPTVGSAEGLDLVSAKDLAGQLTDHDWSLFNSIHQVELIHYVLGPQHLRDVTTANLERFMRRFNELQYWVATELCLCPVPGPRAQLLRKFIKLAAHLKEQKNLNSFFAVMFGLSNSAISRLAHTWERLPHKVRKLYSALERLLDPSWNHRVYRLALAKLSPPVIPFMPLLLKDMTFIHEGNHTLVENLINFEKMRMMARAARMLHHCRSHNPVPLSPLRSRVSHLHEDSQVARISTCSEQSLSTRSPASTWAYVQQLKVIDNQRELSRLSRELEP
How it was run: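 EPAC1 (100 nM) mixed with 250 nM RAP1B-BODIPY-GDP and 50 uM GDP; compounds in concentration series, 5 min at room temperature. Fluorescence (ex 480/em 540 nm) read every 5 min for 30 min; normalized to ATA control and DMSO.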
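Further: plate controls were DMSO for no effect and ATA control for full effect; nearly all actives have a fitted effect of over 75% in size.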

SMILES | activity change, negative = inhibition
N#Cc1cccc(NC(=O)N2CC3(CCN(C(=O)c4ccco4)CC3)C2)c1 | inactive: 27.6%
Clc1ccccc1-c1ccc2ncnc(NCCN3CCOCC3)c2c1 | inactive: 3.82%
COc1ccc(C(=O)OC2CC3CC[C@H](C2)N3C(C)=O)cc1OC (stereo partly drawn) | inactive: 7.9%
CCOc1cc(N)c(Cl)cc1C(=O)NCC1CN(Cc2ccc(F)cc2)CCO1 (stereo not drawn) | inactive: 2.14%
COc1ccc(-c2cc(C)cc3c2OC(CNC(=O)c2cc(C(C)C)on2)C3)nn1 (stereo not drawn) | inactive: 8.64%
Cc1cccc(Nc2ccccc2C(=O)O)c1C | inactive
Nc1ccc(/C=C/c2ccc(N)cc2S(=O)(=O)O)c(S(=O)(=O)O)c1 | inactive: -25.9%
COc1ccc(/C=C/C(=O)c2cc(O)ccc2O)cc1 | inactive: -23.7%
CNCCCN1c2ccccc2CCc2ccccc21 | inactive
COc1ccc(CN2CCOc3c(cc(-c4cccc(OC)n4)cc3OC)C2)c(O)c1 | inactive: 6.56%
O=S(=O)(c1ccccc1)N1CCC2(CCN(c3ccc(-c4ccccc4)cc3)CC2)CC1 | inactive: 3.88%
O=C(NCc1nnc2n1CCN(Cc1ccccc1C(F)(F)F)CC2)c1ccncc1 | inactive: 2.46%
COc1ccc(-c2ccc(C(=O)N(C)Cc3csc(C)n3)c(N3CCC(N4CCc5ccccc5C4)CC3)n2)cc1 | inactive: 16.2%
N#Cc1cccc(-c2nc(NCc3cccs3)c3ccccc3n2)c1 | inactive: 5.22%
Cc1nc2cnc(Nc3ccccc3)nc2n(C)c1=O | inactive: -6.65%
CC(=O)c1ccc(-c2ccc3c4c(ccc3c2)OC(CNC(=O)C(C)N2CCOCC2)C4)s1 (stereo not drawn) | inactive: 8.5%
COCc1c(C(=O)NCC2CCCN(C)C2)cnn1-c1ncc2c(n1)-c1ccccc1CCC2 (stereo not drawn) | inactive: 20.8%
COCCCNc1ncnc2sc(C(=O)N3CCCCC3)c(C)c12 | inactive: 19.3%
CCN(CC)CCOc1ccccc1C(=O)CCc1ccccc1 | inactive: 19.3%
O=C(c1ccco1)N1CCC2(CC1)CN(c1ccc(-c3ccccc3)cc1)C2 | inactive: 8.15%
O=C1OC(CN2CCOCC2)CN1/N=C/c1ccc([N+](=O)[O-])o1 (stereo not drawn) | inactive: -3.67% [at 75.8 µM]
COc1ccc(Oc2ncc3nc(-c4cccc(C#N)c4)c(=O)n(C)c3n2)cc1 | inactive: 8.64%

SMILES | activity change, negative = inhibition
CC1=C(/C=C/C(C)=C/C=C/C(C)=C/C=C/C=C(C)/C=C/C=C(C)/C=C/C2=C(C)C[C@@H](O)CC2(C)C)C(C)(C)C[C@H](O)C1 | inactive: 14.6%
Cc1ccsc1C(=CCCN1CCC[C@@H](C(=O)O)C1)c1sccc1C | inactive: 24.1%
O=C(NC1CCC(=O)N(CCOc2ccccc2)CC1)OCc1ccccc1 (stereo not drawn) | inactive: -1.95%
Cc1ccc(CN2CCOc3ccc(CN4CCC(Oc5cccnc5)CC4)cc3C2)o1 | inactive: 11.4%
COC(=O)[C@@H]1CCCN1C(=O)c1cnn(-c2ncc3c(n2)-c2ccccc2CCC3)c1C1CC1 | inactive: 10.3%
CC[C@@](N)(C(=O)O)c1ccc(C(=O)O)cc1 | inactive: 6.53%
CCOC(=O)CN[C@@H](C(=O)N1CC[C@H]1C(=O)NCc1ccc(/C(N)=N/O)cc1)C1CCCCC1 | inactive: -4.38%
COc1ccc(NC(=O)N2CC3(CCN(S(C)(=O)=O)CC3)C2)cc1 | inactive: -15.8%
O=C(c1cnccn1)N1CCC2(CC1)CN(Cc1nccs1)C2 | inactive: 2.19%
COCC(=O)Nc1cc(C(=O)N2CCCC(C(N)=O)C2)cc2nc(-c3ccccc3)n(C)c12 (stereo not drawn) | inactive: 7.12%
CN(C)c1ncc2nc(-c3cc(F)cc(F)c3)c(=O)n(-c3ccccc3)c2n1 | inactive: 14.5%
O=C1CC(C(=O)N2CCCC(c3nc(-c4ccncc4)ncc3-c3ccccc3)C2)C2(CCCCC2)O1 (stereo not drawn) | inactive: 13.2%
CC(C)(COP(=O)(O)OP(=O)(O)OC[C@H]1O[C@@H](n2cnc3c(N)ncnc32)[C@H](O)[C@@H]1OP(=O)(O)O)C(O)C(=O)NCCC(=O)NCCS (stereo partly drawn) | inactive: 13.1%
COc1cc2c(cc1OC)C(=O)Cc1ccc3c(c1CN(C)CC2)OCO3 | inactive
COc1cccc(-c2ccc(O)c(CNCc3cccc(OC)c3OC)c2)n1 | inactive: 3.51%
CC(=O)OC1CC(OC(C)=O)[C@]2(C)C(CC(OC(C)=O)[C@@]3(C)C4=CC(=O)OC(c5ccoc5)[C@]4(C)CCC32)C1(C)C (stereo partly drawn) | inactive: 0.201%
CN(C)c1ccc(-c2ccc3ncnc(N4CCNCC4)c3c2)cc1 | inactive: 14.8%
N[C@@H](Cn1cc(I)c(=O)n(Cc2ccc(C(=O)O)cc2)c1=O)C(=O)O | inactive: 6.19%
O=C1CCC(N2C(=O)c3ccccc3C2=O)C(=O)N1 (stereo not drawn) | inactive
NCCCC[C@@H](N)C(=O)O | inactive: 8.19%
C[C@H](N)C(=O)N[C@@H](C)P(=O)(O)O | inactive: 2.37%
CC(C)(C)CC(C)(C)c1ccc(O)c(-n2nc3ccccc3n2)c1 | inactive: 7.94%

SMILES | activity change, negative = inhibition
Nc1nc2c(ncn2C2CC(O)C(CO)O2)c(=O)[nH]1 (stereo not drawn) | inactive: -18.8%
CN1C(=O)CN2CCc3ccccc3C2c2cc(Cl)ccc21 (stereo not drawn) | inactive: 0.562%
COc1cc(=O)n2c(c1C(=O)NCc1ccco1)CCN(C(=O)c1ccccc1-c1ncc[nH]1)CC2 | inactive: 5.84%
O=C1NCCN1CCN1CCC(c2cn(-c3ccc(F)cc3)c3ccc(Cl)cc23)CC1 | inactive
COc1cc(-c2noc(C)c2C(=O)NCCO)cc(OC)c1OC | inactive: 9.28%
c1ccc2occc2c1 | inactive: 27.8% [at 320 µM]
CC(=O)C[C@H]1c2cc(F)cc(F)c2S(=O)(=O)N1C1CCN(Cc2ccccc2)CC1 | inactive: 9.79%
Cc1cnc(CNc2ncncc2-c2cccc(C#N)c2)cn1 | inactive: 1.79%
COc1c(O)cc2oc3cc(O)c(CC=C(C)C)c(O)c3c(=O)c2c1CC=C(C)C | inactive
CC[C@H](C)[C@H](NC(=O)[C@H](C)NC(=O)[C@H](CC(N)=O)NC(=O)[C@H](CCCCN)NC(=O)[C@H](Cc1ccccc1)NC(=O)[C@H](CC(C)C)NC(=O)[C@@H](NC(=O)[C@@H](NC(=O)[C@H](CC(C)C)NC(=O)[C@@H]1CCCN1C(=O)[C@@H](NC(=O)[C@H](CCC(N)=O)NC(=O)[C@H](CO)NC(=O)[C@H](CCCCN)NC(=O)[C@H](CCC(=O)O)NC(=O)[C@H](CO)NC(=O)[C@@H](NC(=O)[C@H](CCSC)NC(=O)[C@H](Cc1ccccc1)NC(=O)CNC(=O)CNC(=O)[C@@H](N)Cc1ccc(O)cc1)[C@@H](C)O)[C@@H](C)O)C(C)C)[C@@H](C)O)C(=O)N[C@H](C(=O)N[C@@H](CCCCN)C(=O)N[C@@H](CC(N)=O)C(=O)N[C@@H](C)C(=O)N[C@@H](Cc1ccc(O)cc1)C(=O)N[C@@H](CCCCN)C(=O)N[C@@H](CCCCN)C(=O)NCC(=O)N[C@@H](CCC(=O)O)C(=O)O)[C@@H](C)CC | inactive: 18.3% [at 15.3 µM]
C=CCCCCCCCCC(=O)O | inactive: 19.7%
CCCN(CCC)C(=O)C(CCC(=O)OCCCN1CCN(CCOC(=O)Cc2c(C)n(C(=O)c3ccc(Cl)cc3)c3ccc(OC)cc23)CC1)NC(=O)c1ccccc1 (stereo not drawn) | inactive: 10.3%
COc1ccc2c(c1)CCC1[C@@H]2CCC2(C)[C@@H](NCCCCCCN3C(=O)C=CC3=O)CC[C@@H]12 (stereo partly drawn) | inactive: -0.307%
CC1(C)S[C@@H]2[C@H](NC(=O)Cc3ccccc3)C(=O)N2[C@H]1C(=O)O | inactive: -3.13%
C[C@]12C[C@H](O)CC(CO)(CO)C1[C@H](O)C[C@@]13CC4[C@@H](CC12)[C@@]4(C)C3 (stereo partly drawn) | inactive: 22.1%
CNC(C)C#Cc1c(-c2cc(OC)c(OC)c(OC)c2)noc1C (stereo not drawn) | inactive: 8.6%
CCN(CC)CCNC(=O)COc1ccc(OC)cc1 | inactive: 19.9%
Cc1nc2n(c(=O)c1CCN1CCC(c3noc4cc(F)ccc34)CC1)CCCC2O (stereo not drawn) | inactive: 3.61% [at 75.8 µM]
Cc1cccc(CNc2ncnc3ccc(-c4cccc(NS(C)(=O)=O)c4)cc23)c1 | inactive: 5.51%
COCCNc1ccnc(-c2cccc(NS(C)(=O)=O)c2)n1 | inactive: 21.7%
OC[C@@H]1O[C@@H](n2cnc3c(N[C@H]4CCC[C@@H]4O)ncnc32)[C@H](O)[C@H]1O | inactive: 12.3%
COc1ccc(-c2nc3ccc(C4=NNC(=O)CC4C)cc3[nH]2)cc1 (stereo not drawn) | inactive: 6.17%

SMILES | activity change, negative = inhibition
CC(=O)OCC1=C(C(=O)O)N2C(=O)[C@@H](NC(=O)Cc3cccs3)[C@H]2SC1 | inactive
CCn1nc(C)cc1C(=O)NCC1Cc2cc(C)cc(-c3ccccc3C(=O)OC)c2O1 (stereo not drawn) | inactive: 7.13%
COc1ccc2[nH]cc(CCNc3ccnc(-c4ccccc4C)n3)c2c1 | inactive: -14.8%
CCOc1ccc(NC(=O)CC(C)O)cc1 (stereo not drawn) | inactive: 7.32%
C=CCN1c2ccc(Br)cc2C(=O)CS1(=O)=O | inactive: -5.24%
CC(C)=CCC/C(C)=C/CC/C(C)=C/CC/C(C)=C/CO | inactive
COc1cccc(CN2C(=O)NC(C)(C3CCN(Cc4cnn(C)c4C)CC3)C2=O)c1OC (stereo not drawn) | inactive: 13.2%
COc1ccc(CN2CCOc3ccc(C(O)c4cccnc4)cc3C2)cc1O (stereo not drawn) | inactive: 13.6%
CCN(CC)S(=O)(=O)c1ccc(C(=O)O)cc1 | inactive: 5.25%
COc1cccc(-c2nc(NCCN3CCOCC3)c3ccccc3n2)c1 | inactive: 4.52%
COC(=O)C[C@H]1c2ccccc2S(=O)(=O)N1C(C)C | inactive: 6.97%
Oc1cc2c(c(Cl)c1O)CCNCC2c1ccccc1 (stereo not drawn) | inactive
CC(=O)OC1CC(OC(C)=O)[C@]2(C)C(CC(=O)[C@]3(C)C2CC[C@@]2(C)C(C(=O)O)OC(=O)C4OC423)C1(C)C (stereo partly drawn) | inactive: -2.45%
Cc1c(C(=O)N(C)C2CCOC2)sc2ncnc(NCC3(c4ccccc4)CCOCC3)c12 (stereo not drawn) | inactive: 17.7%
COCC(=O)O[C@]1(CCN(C)CCCc2nc3ccccc3[nH]2)CCc2cc(F)ccc2[C@@H]1C(C)C | inactive
O=C(O)CCCCC1CCSS1 (stereo not drawn) | inactive
O=C(N[C@@H]1CCC(=O)N(CC[C@H](Sc2ccccc2)c2ccccc2)CC1)OCc1ccccc1 | inactive: 4.42%
CCN(CC)Cc1cc(Nc2ccnc3cc(Cl)ccc23)ccc1O | inactive
CC(=O)OC1CC[C@@]2(C)C3=CC(=O)[C@]4(C)C(CC5OC6(OCC(C)CC6Br)C(C)C54)C3CC[C@H]2C1 (stereo partly drawn) | inactive: -4.28%
OC(c1ccc2c(c1)CN(Cc1ccc3nsnc3c1)CCO2)C1CCCCC1 (stereo not drawn) | inactive: 12.3%
COc1ccc2c(c1)CCc1cnc(-n3ncc(C(=O)NCc4cccnc4)c3C3CC3)nc1-2 | inactive: 29%
CC[C@@H]([C@H](C)O)n1ncn(-c2ccc(N3CCN(c4ccc(OCC5CO[C@@](Cn6cncn6)(c6ccc(F)cc6F)C5)cc4)CC3)cc2)c1=O (stereo partly drawn) | inactive: 19.4%
